# Source: the supplement of paper PMC10338343
# ± gives the standard deviation. This is a selection; strong and weak results do not stand in their true shares.
# Tested on: MIWI (PIWIL1) piRISC loaded with piRNA #1 (30 nt)
# Experiment: pre-steady-state target cleavage rate (min^-1); MIWI and MILI are mouse PIWI proteins and EfPiwi is from a freshwater sponge; tags in brackets are library labels; higher = faster piRNA-guided slicing of the target
# Conditions: guide: piRNA #1 5'p-UGAGGUAGUAGGUUGUAUAGUAUCCAGAGG; auxiliary factor: 500 nM mouse GTSF1
# Procedure, shortened: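 Reactions were run for 0–8 or 0–960 min at 33 °C in HEPES–potassium acetate buffer, combining 1 nM active affinity-purified piRISC with one synthetic guide, […] transcribed, DNA-blocked target RNA library and, in some cases, 500 nM GTSF1 partner protein. Sequencing of uncleaved targets followed, with normalisation to depth and to weakly complementary targets. Three trials were pooled, k3 was capped at 0.0001 min^-1, and the pre-steady-state cleavage rate was taken from a burst-and-steady-state fit.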
# 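Further: 1 nM active piRISC with 0.1 nM target library at 33 °C single turnover.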
row,Sequence,pre-steady-state target cleavage rate
1,GGAGACCUUACUAUACAACCUACUACCUUA,1.39 ± 0.09
2,GGUCUGGUUACUAUACAACCUACUACGUCA,0.359 ± 0.053
3,GGAGACCUAUCUAUACGACCUACUACCUCA,0.209 ± 0.021
4,GGAGACGAUAUAUACAACCUACUACCUCA,1.06 ± 0.089
5,GGAGUGGAUUCUAAACAACCUACUACCUCA,0.994 ± 0.069
6,GGAGAGGAAACUAUACAACCUACUACGUCA,0.371 ± 0.033
7,GGACAGGAUACUAUACAUCCUACUACCUCA,1.55 ± 0.091
8,GGACUGGAUACAAUAGAACCUACUACCUCA,1.1 ± 0.082
9,GGAGAGGAUACUAUACAAGCUACUACCUCA,0.454 ± 0.032
10,CCUGUGGAAACUAUACAACCUACUACCUCA,1.78 ± 0.09
11,GGAGACGAUACUAUAUAACCUACUACCUCA,1.94 ± 0.12
12,CCUCUGGAUACUAUACAAGCUACUACCUCA,1.46 ± 0.069
13,GGAGAGGAUACUAUACAACCUACUACGACA,0.14 ± 0.028
14,GGAGACCUUACUAUACAACCAACUACCUCA,0.0758 ± 0.0091
15,GGACUCGAUACUAUACAACCUACUACCUGA,0.638 ± 0.13
16,GGAGACCUAACUAUACAACCUACUACACUCA,0.539 ± 0.059
17,GGAGAGGAUACUUUACUACCUACUACCUCA,0.884 ± 0.062
18,GCUCUGGAUACUAUACAACCUACUAGCUGA,0.187 ± 0.03
19,GCUCUGGAUACUAUACAAGCCUACUACCUCA,0.0047 ± 0.0043
20,GGUCUGGAAUCUAUACAACCUACUACCUCA,1.57 ± 0.1
21,CCUCUGGAUACUAUACAACCAUGUACCUCA,0.0134 ± 0.0039
22,CCUCUGGAUACUAUAGAACCUACUACGUCA,0.694 ± 0.071
23,GGAGACGUUACUUUACAACCUACUACCUCA,1.01 ± 0.1
24,GGACUGCAUACUAUACAUCCUACUACCUCA,1.33 ± 0.13

row,Sequence,pre-steady-state target cleavage rate
1,GGAGACGAUACUAUACAAGCUACUUCCUCA,0.628 ± 0.033
2,GGAGACCUAUGAUUAGAACCUACUACGUCA,< 0.0001
3,GGAGUGGGAUACUAUACAACCUACUACCUCA,1.68 ± 0.074
4,GGAGACCUAUCUAUACAACCUACUACCCA,0.18 ± 0.03
5,GGAGACGAUACUAUACAACCUACUGCCUCA,0.993 ± 0.07
6,GGAGACCAUACUAUACAACCAACUACCACA,0.114 ± 0.0095
7,GGAGACCUAUGAUAACAACCUACAUGGAGA [g8:g16:cont:t1A],< 0.0001
8,GGAGUGGAUACUAUACAACGUACUAGCUCA,0.0857 ± 0.017
9,GGUCUGGAUACUAUACAAUCUACUACCUCA,0.466 ± 0.021
10,GGACAGGAUACUAUACAACCUUCUACCUCA,0.646 ± 0.036
11,GGACUGUAUACUAUACAACCUACUACCUCA,1.5 ± 0.13
12,GGAGACCUAUGUAUACAACCUUCUACGUCA,0.00673 ± 0.0022
13,GGACUGGAUACUAUACAACCAUGAUGGAGA [g11:g27:cont:t1A],< 0.0001
14,GGAGACCUAACUAUACAACCUACUGACCUCA,0.623 ± 0.088
15,GGACUGCAUACUAAACAACCUACUACCUCA,1.34 ± 0.13
16,GCUCUGGAUACUAUAGAACCUACUACCUCA,0.644 ± 0.057
17,CCUCUGGAUACUAUACAACCUUGAACCUCA,0.00821 ± 0.0023
18,GGAGACGAUACUAUUCAACCUACUACCACA,0.827 ± 0.057
19,CCUCUGGAUACGUAUACAACCUACUACCUCA,1.37 ± 0.083
20,GGAGUGCAAACUAUACAACCUACUACCUCA,1.04 ± 0.086
21,CCUCUGGAUACUAUUCAACCUACUACCUCA,1.87 ± 0.12
22,GGAGACCAUACUAAACUACCUACUACCUCA,0.13 ± 0.017
23,GGAGACCUUACUUUAGAACCUACUACCUCA,0.496 ± 0.053
24,GCUCUGGAUUCUUUACAACCUACUACCUCA,0.448 ± 0.054

row,Sequence,pre-steady-state target cleavage rate
1,GCUCUGGAUACUAUACAUCCAACUACCUCA,0.128 ± 0.021
2,GCUCUGGAUACUAUUGUACCUACUACCUCA,0.109 ± 0.019
3,GGUCUGCAUACUAUACAACCUAGUACCUCA,0.551 ± 0.054
4,GGAGACGAUACUAUACAACGUACUAGCUCA,0.261 ± 0.067
5,GCUCUGGAUACUAUAGAACCUUCUACCUCA,0.0828 ± 0.013
6,CGUCUGGAUACUAUACAACGUACUACCUCA,0.603 ± 0.043
7,GGAGACCAUACUAUAGAACCUACUACCUCA,0.618 ± 0.05
8,GGAGACGAAACUAUUCAACCUACUACCUCA,1.08 ± 0.076
9,GGACUGCAUACAAUACAACCUACUACCUCA,0.783 ± 0.12
10,GGACUGGAAACUAUACAACCUUCUACCUCA,0.518 ± 0.052
11,GGAGAGGAUACAAUACAACCAACUACCUCA,0.101 ± 0.0091
12,GGAGACCUAACUAUACAAGCUACUACCACA,0.65 ± 0.043
13,GGAGACGAUACUUUACAACCUUCUACCUCA,0.528 ± 0.024
14,CCUCUGGAUACUAAACAACCUACUACCUGA,0.701 ± 0.11
15,GGAGAGGAUACUAUACAUCGUACUACCUCA,0.224 ± 0.026
16,GGACUGGAUACUAAACAACCUACAACCUCA,0.345 ± 0.039
17,GGAGAGGAUUCUAUACAACCAACUACCUCA,0.0987 ± 0.011
18,GGAGACCAUACUAUACAACCUACUACCCA,0.47 ± 0.044
19,GGAGAGGAUACAAUAGAACCUACUACCUCA,0.93 ± 0.051
20,GGACUGGAAACUAUACAACCUACUUCCUCA,0.00362 ± 0.0025
21,CCUCUGCAUACUAUACAUCCUACUACCUCA,1.81 ± 0.11
22,GCUCUGGUUACUAUACAAGCUACUACCUCA,1.25 ± 0.054
23,GGACUGGAUACUAUACAAGCUACUUCCUCA,0.407 ± 0.036
24,GGAGACCUUACUUUACAACCUACUAGCUCA,0.362 ± 0.047

row,Sequence,pre-steady-state target cleavage rate
1,GCUCUGGAUACUGAUACAACCUACUACCUCA,1.39 ± 0.092
2,GGAGACCUAACUAUACAACCAACUACCUCA,0.0156 ± 0.0076
3,GGACUGGAUACUUUACAACCUUCUACCUCA,0.531 ± 0.037
4,GGACUCGAUACUAUACAACCUACUACCACA,0.579 ± 0.063
5,GGAGUGGAUACUAAACAAGCUACUACCUCA,0.881 ± 0.04
6,GGAGACCUAUGAUAUGUUCCUACUACCACA,< 0.0001
7,GGAGACCUAUCUUUACAACCUACUACGUCA,0.146 ± 0.027
8,GGAGACCUUACUAAACAAGCUACUACCUCA,0.473 ± 0.044
9,GGAGACCUAACUAUACAACCUUCUUCCUCA,0.0214 ± 0.007
10,GGAGACCUUACUAUACAACCUUGUACCUCA,0.0118 ± 0.0031
11,CCUCUGGAUACUAUACAACCUCACUACCUCA,0.0086 ± 0.0033
12,GGAGUGCAUACUAUUCAACCUACUACCUCA,1.43 ± 0.11
13,GCUCUGGAUACUUUACAUCCUACUACCUCA,1.54 ± 0.096
14,GGACUGGAUACUAUUCAACCUACUUCCUCA,0.00677 ± 0.0021
15,GGUCUCGAAACUAUACAACCUACUACCUCA,1.57 ± 0.11
16,GGUGUGGAUACUAUACAACCUACUUCCUCA,0.0115 ± 0.0039
17,GGACUGGAUACUAUACAACCUACUACCUCU [g2:g27:cont:t1U],1.36 ± 0.11
18,GGAGACCUAACUAUACAUCCUACUACGUCA,0.338 ± 0.049
19,GGAGAGGUUACUAUACAACCAACUACCUCA,0.109 ± 0.0084
20,GGUCUGGAUACUAUACAAGGAACUACCUCA,0.00269 ± 0.0026
21,GCUCUGGAUACUAUACAAACCUACUACCUCA,0.018 ± 0.0064
22,GGACUGGAUACUAUACAACCUUCUUCCUCA,0.00382 ± 0.0027
23,GGACUGCAUACUAUACAACGUACUACCUCA,0.811 ± 0.078
24,GCUCUGGAAAGUAUACAACCUACUACCUCA,1.59 ± 0.085

row,Sequence,pre-steady-state target cleavage rate
1,GCUGUGGAUAGUAUACAACCUACUACCUCA,0.599 ± 0.049
2,GGAGAGCAUACUAUACAACCUACAACCUCA,0.868 ± 0.066
3,GGAGACGAUACUAUACAACCUACUUCGUCA,0.15 ± 0.041
4,GGUCUGGAUACUAAACAACGUACUACCUCA,0.851 ± 0.062
5,GGAGAGGAUACUAUACAACCUACUACUUCA,1.57 ± 0.1
6,GGACUGGAUACUUUACAACCUACUACCACA,0.205 ± 0.025
7,GGAGAGGAUAGUAUACAACCUAGUACCUCA,0.157 ± 0.024
8,GGACUGGUUACUAUUCAACCUACUACCUCA,1.43 ± 0.13
9,GGAGACCUAAACUAUACAACCUACUACCUCA,1.19 ± 0.11
10,CCUCUGCAUACAAUACAACCUACUACCUCA,2.02 ± 0.12
11,GCUCUGGAUACAAUACAACCUACUACCUGA,0.9 ± 0.11
12,GCUCUGGAUUCUAUACAAGCUACUACCUCA,1.3 ± 0.07
13,GGAGACCUAACAUAUACAACCUACUACCUCA,0.188 ± 0.047
14,GGAGACCUAUCUAUACAACGUAGUACCUCA,0.00805 ± 0.0018
15,GGAGACCUAUCUAUACAACCUACUAGGAGA [g6:g20:cont:t1A],0.031 ± 0.011
16,GGAGACCUUACUACACAACCUACUACCUCA,1.24 ± 0.086
17,GCUCUGGACACUAUACAACCUACUACCUCA,1.57 ± 0.11
18,GGUCUGCAUUCUAUACAACCUACUACCUCA,1.51 ± 0.11
19,GGAGACCUAUCUAUUCAACCUACUACCUCA,0.471 ± 0.054
20,GGAGAGCAAACUAUACAACCUACUACCUCA,1.21 ± 0.091
21,GGAGUGGUUACUAUUCAACCUACUACCUCA,1.55 ± 0.11
22,GGAGACCUAUGUAUACAAACUACUACCUCA,0.0797 ± 0.0098
23,GGAGAGGAUAGUAUACAACCUACUACCUCA,0.145 ± 0.031
24,GGAGAGCAUACUAUACAACCUUCUACCUCA,0.636 ± 0.034
